The antibiotic and cytotoxicity screens of Wong et al. (2023)
The list shows a part of the results.

The compounds below were run on HepG2 (assay: cytotoxicity call (relative viability < 0.9)). Conditions: 10 µM.

Row | SMILES | cytotoxicity call
1 | C[C@@H]1CN([C@H](C)CO)C(=O)c2cc(-c3ccncc3)cnc2O[C@H]1CN(C)S(=O)(=O)c1ccccc1 | inactive
2 | C[C@@H]1CN([C@@H](C)CO)C(=O)Cc2cc(NC(=O)Cn3cnnn3)ccc2O[C@@H]1CN(C)Cc1ccncc1 | inactive
3 | CO[C@@H](CN(C)C(=O)c1ccc2c(c1)OCO2)[C@H](C)CN([C@@H](C)CO)S(=O)(=O)c1ccc(C)cc1 | inactive
4 | CCC1OC(=O)C(C)C(OC2CC(C)(OC)C(O)C(C)O2)C(C)C(OC2OC(C)CC(N(C)C)C2O)C(C)(OC)CC(C)C(=O)C(C)C(O)C1(C)O (centres undefined) | inactive
5 | C[C@@H]1CN([C@@H](C)CO)C(=O)Cc2cc(NC(=O)CCCCCC(=O)Nc3ccccc3N)ccc2O[C@H]1CN(C)Cc1ccccc1 | inactive
6 | C[C@@H]1CN([C@@H](C)CO)C(=O)Cc2cc(NC(=O)CCN3CCOCC3)ccc2O[C@H]1CN(C)Cc1ccccc1 | inactive
7 | C[C@H](CO)N1C[C@H](C)[C@H](CN(C)S(=O)(=O)c2ccc(Cl)cc2)Oc2ccc(NC(=O)Nc3cccc4ccccc34)cc2CC1=O | active
8 | C[C@@H]1CN([C@H](C)CO)C(=O)Cc2cc(NC(=O)Nc3cccc4ccccc34)ccc2O[C@H]1CN(C)C(=O)Nc1ccc(C(F)(F)F)cc1 | inactive
9 | C[C@H](CO)N1C[C@H](C)[C@@H](CN(C)C(=O)Nc2ccccc2)OCCCC[C@H](C)Oc2ccc(NS(=O)(=O)c3ccc(Cl)cc3)cc2C1=O | inactive
